Measured values: PubChem BioAssay AID1347120 (National Center for Advancing Translational Sciences (NCATS), 2019)
Values joined by “and” are separate entries in the source; they are usually repeats but may differ in a detail not shown here. Equal values may be shown once. Hit rate of the full screen: of about 390,000 compounds, about 930 (0.24%) were called active. The shares of active, inactive and inconclusive entries below differ from those in the screen. The call rests on the fitted dose curve; in most records, active means well fitted activation curve with a large enough effect; inconclusive means small, poorly fitted or top-dose-only effect; inactive means no such curve, though single readings can be large or run the other way. Potencies of inconclusive entries are doubtful fits and often do not repeat.

Test: qHTS for Suppressors of FUS Proteinopathy: Primary screen using FUS-linked yeast assay; further: nearly all actives have a fitted effect of over 55% in size;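 on growth rescue (activation): plate controls were DMSO vehicle for no effect and reference control for full effect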
Settings: S. cerevisiae FUS-expressing, OD600, 24 h; Potency: growth rescue; growth rescue (activation): at 76.6 µM (top of the series)
Summary of the method: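 Compound concentration series was pinned onto galactose-induced FUS-expressing yeast seeded at OD 0.005. Plates sat 24hr at 30C; absorbance at 600 nm gave growth. DMSO served as background control.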
Potency means the concentration at half of the fitted maximal effect; tags describe the fitted curve by direction and shape.

SMILES	Potency	growth rescue (activation)
COc1ccccc1CN1CC(C(=O)NCCCc2ccc(F)cc2)CCC1=O (centres undefined)	active: 15.8 µM	
CCCCC1OC23CCCCC2C(C#N)(C#N)C1(C#N)C(=N)O3 (centres undefined)		inactive: 5.13%
COc1ccccc1C1=CC(=O)C[C@H](c2ccc(Cl)cc2)C1	inconclusive: 35.5 µM [activator, single point]	
COc1ccc(C2CC(c3ccccc3Cl)=NN2c2ccc(S(N)(=O)=O)cc2)cc1 (centres undefined)	inconclusive: 50.1 µM [activator, single point]	
CSC1=NC(NCCCO)c2c(sc3c2CC(C)(C)OC3)N1 (centres undefined)		inactive: 29.8%
O=C(c1ccccc1Cc1ccccc1)N1CCN(S(=O)(=O)c2ccccc2Br)CC1		inactive: 39.6%
CCCCc1ccc(NC(=O)Nc2cc(C)nn2C)cc1		inactive: 13.4%
CCCOC(=O)c1cccc(Nc2nc(C(=O)OCC)nc3ccccc23)c1		inactive: 22.6%
Cc1ccc(C=Nc2ccc(N(C)C)cc2)o1	inconclusive: 15.8 µM [activator, partial curve, poor fit]	
CN(CC(=O)Nc1cccc(F)c1)C(=O)c1cccc(S(=O)(=O)N2CCN(c3ccccc3)CC2)c1	inconclusive: 39.8 µM [activator, single point]	
CCOc1ccc(CCNC(=O)Cn2ccc3cc(S(=O)(=O)N4CCCCCC4)ccc32)cc1		inactive: -11.4%
COc1ccccc1-c1oc2ccccc2c1-c1ccc2cc[nH]c2c1	inconclusive: 28.2 µM [activator, partial curve]	
O=c1c2c(C(F)(F)F)cc(C(F)(F)F)nc2[nH]n1-c1ccccc1		inactive: 35.7%
CCn1c(SCC(=O)c2c[nH]c3ccccc23)nnc1-c1cccs1		inactive: 11.2%
CC(C)(C)c1ccc(OCCC(=O)Nc2cccc(S(=O)(=O)N3CCCC3)c2)cc1	inconclusive: 22.4 µM [activator, partial curve]	
CCOc1ccc(-c2nc(CSCC(=O)NC3CCC3)c(C)o2)cc1		inactive: 6.02%
CCOc1ccccc1N1CCN(C(=O)C(Sc2ccccc2)c2ccccc2)CC1 (centres undefined)	inconclusive: 50.1 µM [activator, single point]	
Cc1cccc(N2CCN(C(=O)C3CCCN(C(=O)c4cc5sccc5n4C)C3)CC2)c1C (centres undefined)	inconclusive: 31.6 µM [activator, single point]	
CCOC(=O)[C@]12CCC=C1N(Cc1cccc3ccccc13)C(=O)[C@H](CC(=O)N1CCCCC1)C2	inconclusive: 14.1 µM [activator, partial curve]	
O=C1NC[C@H](CCCCN2C[C@H](Cc3ccc(O)cc3)N(CCC3CCCCC3)C(=O)C2=O)N(CC2CCCCC2)C1=O	inconclusive: 50.1 µM [activator, single point]	
CN(C)CCCN1CC(C(=O)O)CC1=O (centres undefined)		inactive: -9.04%
COc1ccc(C(=O)CSc2nnc(-c3ccco3)c(-c3ccco3)n2)cc1	inconclusive: 50.1 µM [activator, single point]	

SMILES	Potency	growth rescue (activation)
COc1ccc(-c2cc(C(=O)N3CCN(c4ccccc4O)CC3)c3ccccc3n2)cc1OC	inconclusive: 31.6 µM [activator, partial curve]	
Cc1ccccc1-n1c2nc(=O)[nH]c(=O)c-2cc2c(Cl)cccc21		inactive: -21.3%
CCOC(=O)c1c(C)[nH]c(C)c1S(=O)(=O)N1CCCC(C(=O)Nc2ccc(OC)c(OC)c2)C1 (centres undefined)		inactive: 8.45%
COc1cccc(CNC(=O)CCC2CCCN(C(=O)c3cccc4c(C)c(C)[nH]c34)C2)c1 (centres undefined)	inconclusive: 35.5 µM [activator, partial curve, poor fit]	
COc1ccccc1CNC(=O)C(=O)NCCC1CCCCN1S(=O)(=O)c1ccc(C)cc1 (centres undefined)	inconclusive: 25.1 µM [activator, partial curve, poor fit]	
COC(=O)c1cc(C)nc2c1c(=O)nc(SCc1cccc(C(F)(F)F)c1)n2C1CC1		inactive: -2.09%
COc1ccc(Cl)cc1NC(=O)COC(=O)CC(C)(C)CC1=NS(=O)(=O)c2ccccc2N1	inconclusive: 35.5 µM [activator, single point]	
COc1ccc(OCC(O)Cn2ccnc2C)cc1 (centres undefined)		inactive: -2.29%
CC(C)c1ccc(NC(=O)c2cc(S(=O)(=O)NC3CCCCC3)ccc2F)cc1	inconclusive: 20 µM [activator, partial curve, poor fit]	
COC(=O)c1cc(S(=O)(=O)N2CCN(c3cccc(C(F)(F)F)c3)CC2)cn1C		inactive: 39.7%
COC(=O)C1=C(C(=O)OC)[C@@H]2N(Cc3ccccc3)c3ccccc3[C@@]23C[C@@H](C(=O)OC)N(C(=O)c2ccc(Br)cc2)C3=N1	inconclusive: 12.6 µM [activator, partial curve]	
COc1ccc2[nH]c(S(=O)Cc3ncc(C)c(OC)c3C)nc2c1 (centres undefined)	inconclusive: 35.5 µM [activator, single point] and inconclusive: 31.6 µM [activator, single point]	
CCCCNC(=O)OCCCN1CCC2(CCC(c3ccccc3)CC2)C1 (centres undefined)		inactive: -5.21%
COc1ccc(-c2cc(C(F)(F)F)nc(NCc3cccs3)n2)cc1		inactive: 24.2%
C=CCn1c(C)cc(C(=O)CSc2nc3ccccc3c(=O)[nH]2)c1C		inactive: 14.5%
CCN1CCn2c3c(c4cc(Cl)ccc42)CCCC31 (centres undefined)		inactive: -5.78%
Cn1cnc(S(=O)(=O)N2CCCCC2c2cc(C(=O)NCc3ccc(Cl)c(Cl)c3)no2)c1 (centres undefined)	inconclusive: 44.7 µM [activator, single point]	
CC(C)N(C(=O)[C@H]1C[C@H](CC(=O)NCCC2=CCCCC2)C(=O)N2CCc3c([nH]c4cc(CCC(=O)N(C)C)ccc34)[C@]12C)C(C)C	inconclusive: 12.6 µM [activator, partial curve]	
CC(C)NC(=O)Cn1c(=O)nc(-c2ccccc2)c2ccccc21		inactive: -11.2%
CC(=O)c1c(C)nc(-c2ccccc2)nc1NC(=O)C(C)C		inactive: 11.5%
Cn1c(Cc2cccc3ccccc23)nnc1SCC(=O)N1CCN(c2cccc(Cl)c2)CC1	inconclusive: 22.4 µM [activator, partial curve, poor fit]	
Cc1ccc(C(C)C)c(OCc2ccc(C(=O)Nc3ccc(S(N)(=O)=O)cc3C)o2)c1	inconclusive: 44.7 µM [activator, single point]	
